# Test results: the supplement of paper PMC12423691
# This is one part of the list. Binding of human transcription factors and regulators to the viral nucleoprotein by AlphaScreen, crude cell-free proteins, amounts not normalised, one pass. Fold of the Venus control; higher = more signal. No active / inactive call. Single-pass screen; sequences are the whole Swiss-Prot entries looked up by name.
# B1: CTH, P32929 (protein)
# chain: MQEKDASSQGFLPHFQHFATQAIHVGQDPEQWTSRAVVPPISLSTTFKQGAPGQHSGFEYSRSGNPTRNCLEKAVAALDGAKYCLAFASGLAATVTITHLLKAGDQIICMDDVYGGTNRYFRQVASEFGLKISFVDCSKIKLLEAAITPETKLVWIETPTNPTQKVIDIEGCAHIVHKHGDIILVVDNTFMSPYFQRPLALGADISMYSATKYMNGHSDVVMGLVSVNCESLHNRLRFLQNSLGAVPSPIDCYLCNRGLKTLHVRMEKHFKNGMAVAQFLESNPWVEKVIYPGLPSHPQHELVKRQCTGCTGMVTFYIKGTLQHAEIFLKNLKLFTLAESLGGFESLAELPAIMTHASVLKNDRDVLGISDTLIRLSVGLEDEEDLLEDLDQALKAAHPPSGSHS
# B2: PLAGL1, Q9UM63 (protein)
# chain: MATFPCQLCGKTFLTLEKFTIHNYSHSRERPYKCVQPDCGKAFVSRYKLMRHMATHSPQKSHQCAHCEKTFNRKDHLKNHLQTHDPNKMAFGCEECGKKYNTMLGYKRHLALHAASSGDLTCGVCALELGSTEVLLDHLKAHAEEKPPSGTKEKKHQCDHCERCFYTRKDVRRHLVVHTGCKDFLCQFCAQRFGRKDHLTRHTKKTHSQELMKESLQTGDLLSTFHTISPSFQLKAAALPPFPLGASAQNGLASSLPAEVHSLTLSPPEQAAQPMQPLPESLASLHPSVSPGSPPPPLPNHKYNTTSTSYSPLASLPLKADTKGFCNISLFEDLPLQEPQSPQKLNPGFDLAKGNAGKVNLPKELPADAVNLTIPASLDLSPLLGFWQLPPPATQNTFGNSTLALGPGESLPHRLSCLGQQQQEPPLAMGTVSLGQLPLPPIPHVFSAGTGSAILPHFHHAFR
# B3: PAXBP1, Q9Y5B6 (protein)
# chain: MFRKARRVNVRKRNDSEEEERERDEEQEPPPLLPPPGTGEEAGPGGGDRAPGGESLLGPGPSPPSALTPGLGAEAGGGFPGGAEPGNGLKPRKRPRENKEVPRASLLSFQDEEEENEEVFKVKKSSYSKKIVKLLKKEYKEDLEKSKIKTELNSSAESEQPLDKTGHVKDTNQEDGVIISEHGEDEMDMESEKEEEKPKTGGAFSNALSSLNVLRPGEIPDAAFIHAARKKRQMARELGDFTPHDNEPGKGRLVREDENDASDDEDDDEKRRIVFSVKEKSQRQKIAEEIGIEGSDDDALVTGEQDEELSRWEQEQIRKGINIPQVQASQPAEVNMYYQNTYQTMPYGSSYGIPYSYTAYGSSDAKSQKTDNTVPFKTPSNEMTPVTIDLVKKQLKDRLDSMKELHKTNRQQHEKHLQSRVDSTRAIERLEGSSGGIGERYKFLQEMRGYVQDLLECFSEKVPLINELESAIHQLYKQRASRLVQRRQDDIKDESSEFSSHSNKALMAPNLDSFGRDRALYQEHAKRRIAEREARRTRRRQAREQTGKMADHLEGLSSDDEETSTDITNFNLEKDRISKESGKVFEDVLESFYSIDCIKSQFEAWRSKYYTSYKDAYIGLCLPKLFNPLIRLQLLTWTPLEAKCRDFENMLWFESLLFYGCEEREQEKDDVDVALLPTIVEKVILPKLTVIAENMWDPFSTTQTSRMVGITLKLINGYPSVVNAENKNTQVYLKALLLRMRRTLDDDVFMPLYPKNVLENKNSGPYLFFQRQFWSSVKLLGNFLQWYGIFSNKTLQELSIDGLLNRYILMAFQNSEYGDDSIKKAQNVINCFPKQWFMNLKGERTISQLENFCRYLVHLADTIYRNSIGCSDVEKRNARENIKQIVKLLASVRALDHAMSVASDHNVKEFKSLIEGK
# B4: ZNF367, Q7RTV3 (protein)
# chain: MIRGFEAPMAENPPPPPPPVIFCHDSPKRVLVSVIRTTPIKPTCGGGGEPEPPPPLIPTSPGFSDFMVYPWRWGENAHNVTLSPGAAGAAASAALPAAAAAEHSGLRGRGAPPPAASASAAASGGEDEEEASSPDSGHLKDGIRRGRPRADTVRDLINEGEHSSSRIRCNICNRVFPREKSLQAHKRTHTGERPYLCDYPDCGKAFVQSGQLKTHQRLHTGEKPFVCSENGCLSRFTHANRHCPKHPYARLKREEPTDTLSKHQAADNKAAAEWLARYWEMREQRTPTLKGKLVQKADQEQQDPLEYLQSDEEDDEKRGAQRRLQEQRERLHGALALIELANLTGAPLRQ
# B5: HLF, Q16534 (protein)
# chain: MEKMSRPLPLNPTFIPPPYGVLRSLLENPLKLPLHHEDAFSKDKDKEKKLDDESNSPTVPQSAFLGPTLWDKTLPYDGDTFQLEYMDLEEFLSENGIPPSPSQHDHSPHPPGLQPASSAAPSVMDLSSRASAPLHPGIPSPNCMQSPIRPGQLLPANRNTPSPIDPDTIQVPVGYEPDPADLALSSIPGQEMFDPRKRKFSEEELKPQPMIKKARKVFIPDDLKDDKYWARRRKNNMAAKRSRDARRLKENQIAIRASFLEKENSALRQEVADLRKELGKCKNILAKYEARHGPL
# B6: FOXS1, O43638 (protein)
# chain: MQQQPLPGPGAPTTEPTKPPYSYIALIAMAIQSSPGQRATLSGIYRYIMGRFAFYRHNRPGWQNSIRHNLSLNECFVKVPRDDRKPGKGSYWTLDPDCHDMFEHGSFLRRRRRFTRQTGAEGTRGPAKARRGPLRATSQDPGVPNATTGRQCSFPPELPDPKGLSFGGLVGAMPASMCPATTDGRPRPPMEPKEISTPKPACPGELPVATSSSSCPAFGFPAGFSEAESFNKAPTPVLSPESGIGSSYQCRLQALNFCMGADPGLEHLLASAAPSPAPPTPPGSLRAPLPLPTDHKEPWVAGGFPVQGGSGYPLGLTPCLYRTPGMFFFE
# B7: KDM3A, Q9Y4C1 (protein)
# chain: MVLTLGESWPVLVGRRFLSLSAADGSDGSHDSWDVERVAEWPWLSGTIRAVSHTDVTKKDLKVCVEFDGESWRKRRWIEVYSLLRRAFLVEHNLVLAERKSPEISERIVQWPAITYKPLLDKAGLGSITSVRFLGDQQRVFLSKDLLKPIQDVNSLRLSLTDNQIVSKEFQALIVKHLDESHLLKGDKNLVGSEVKIYSLDPSTQWFSATVINGNPASKTLQVNCEEIPALKIVDPSLIHVEVVHDNLVTCGNSARIGAVKRKSSENNGTLVSKQAKSCSEASPSMCPVQSVPTTVFKEILLGCTAATPPSKDPRQQSTPQAANSPPNLGAKIPQGCHKQSLPEEISSCLNTKSEALRTKPDVCKAGLLSKSSQIGTGDLKILTEPKGSCTQPKTNTDQENRLESVPQALTGLPKECLPTKASSKAELEIANPPELQKHLEHAPSPSDVSNAPEVKAGVNSDSPNNCSGKKVEPSALACRSQNLKESSVKVDNESCCSRSNNKIQNAPSRKSVLTDPAKLKKLQQSGEAFVQDDSCVNIVAQLPKCRECRLDSLRKDKEQQKDSPVFCRFFHFRRLQFNKHGVLRVEGFLTPNKYDNEAIGLWLPLTKNVVGIDLDTAKYILANIGDHFCQMVISEKEAMSTIEPHRQVAWKRAVKGVREMCDVCDTTIFNLHWVCPRCGFGVCVDCYRMKRKNCQQGAAYKTFSWLKCVKSQIHEPENLMPTQIIPGKALYDVGDIVHSVRAKWGIKANCPCSNRQFKLFSKPASKEDLKQTSLAGEKPTLGAVLQQNPSVLEPAAVGGEAASKPAGSMKPACPASTSPLNWLADLTSGNVNKENKEKQPTMPILKNEIKCLPPLPPLSKSSTVLHTFNSTILTPVSNNNSGFLRNLLNSSTGKTENGLKNTPKILDDIFASLVQNKTTSDLSKRPQGLTIKPSILGFDTPHYWLCDNRLLCLQDPNNKSNWNVFRECWKQGQPVMVSGVHHKLNSELWKPESFRKEFGEQEVDLVNCRTNEIITGATVGDFWDGFEDVPNRLKNEKEPMVLKLKDWPPGEDFRDMMPSRFDDLMANIPLPEYTRRDGKLNLASRLPNYFVRPDLGPKMYNAYGLITPEDRKYGTTNLHLDVSDAANVMVYVGIPKGQCEQEEEVLKTIQDGDSDELTIKRFIEGKEKPGALWHIYAAKDTEKIREFLKKVSEEQGQENPADHDPIHDQSWYLDRSLRKRLHQEYGVQGWAIVQFLGDVVFIPAGAPHQVHNLYSCIKVAEDFVSPEHVKHCFWLTQEFRYLSQTHTNHEDKLQVKNVIYHAVKDAVAMLKASESSFGKP
# Target: nucleoprotein N of Crimean-Congo hemorrhagic fever virus
# Assay: AlphaScreen luminescence signal relative to Venus negative control (fold); higher = stronger binding to CCHFV N
# Description: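 AlphaScreen binding of cell-free made, FLAG-GST-tagged human transcription factors and regulators (crude translation products) to biotinylated N protein; signal as fold of the FLAG-GST-Venus control. One pass.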
row,Binder,AlphaScreen luminescence signal
1,B1,1.16
2,B2,2.74
3,B3,1.02
4,B4,2.74
5,B5,4.19
6,B6,2.56
7,B7,2.37
